Measured values from patent US20200016266A1 (INIS BIOTECH, published 2020).

Legend:
Assay in all cases: anti-HA bead immunoprecipitation of KDR-HA from HEK 293T lysates, incubation with Gal1 and Alexa Fluor 488 anti-Gal1 Ab, flow cytometry; % relative to KDR-HA WT
[1] = target: T1, HA-tagged human VEGFR2 (KDR) mutant devoid of N-glycosylation sites in Ig-like domain 7 (N675Q, N704Q, … (human, UniProt P35968))
T1 construct: mature; Expressed in HEK-293T cells and captured from them on anti-HA fluorescent beads; I took it as full length, as for the wild-type KDR-HA; also called Ig-7 mutant; VEGFR2 Ig-7 (N675Q, N704Q, N721Q)

[2] = target: T2, HA-tagged human VEGFR2 (KDR) mutant devoid of N-glycosylation sites in Ig-like domain 4 (N374Q, N395Q), … (human, UniProt P35968)
T2 construct: mature; Expressed in HEK-293T cells and captured from them on anti-HA fluorescent beads; I took it as full length, as for the wild-type KDR-HA; also called Ig-4 mutant; VEGFR2 Ig-4 (N374Q, N395Q)

[3] = target: T3, Ig6 (Homo sapiens, UniProt P35968)
T3 construct: full length, HA-tagged, expressed in HEK 293T cells; mutant named only by its domain on the sheet; also called KDR-HA-Ig-6

[4] = target: T4, Ig5 (Homo sapiens, UniProt P35968)
T4 construct: full length, HA-tagged, expressed in HEK 293T cells; mutant named only by its domain on the sheet; also called KDR-HA-Ig-5

[5] = target: T5, HA-tagged human VEGFR2 (KDR) mutant devoid of N-glycosylation sites in Ig-like domain 3 (N245Q, N318Q), … (human, UniProt P35968)
T5 construct: mature; Expressed in HEK-293T cells and captured from them on anti-HA fluorescent beads; I took it as full length, as for the wild-type KDR-HA; also called Ig-3 mutant; VEGFR2 Ig-3 (N245Q, N318Q)

Measured: binding result

B1: Galectin-1 (human recombinant Gal1) (ligand)
chain: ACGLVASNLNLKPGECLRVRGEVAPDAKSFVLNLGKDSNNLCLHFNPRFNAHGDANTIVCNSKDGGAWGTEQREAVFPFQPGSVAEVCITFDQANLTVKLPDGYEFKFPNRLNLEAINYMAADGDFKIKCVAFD
modifications: DyLight 594 label in the FRET assay only
notes: Recombinant Gal1 made in-house; also called rhGal1; 594-Gal1
binds: [1] | [2] | [3] | [4] | [5]
